Cytotoxicity call and growth inhibition call data for 24 compounds are collected here from the antibiotic and cytotoxicity screens of Wong et al. (2023).

In one assay the test system is HSkMC. Description: cytotoxicity call (relative viability < 0.9). The settings on record: 10 µM.
A further assay has as its system HepG2. Description: cytotoxicity call (relative viability < 0.9). The settings on record: 10 µM.
The test system of another assay is S. aureus RN4220. The experiment in a line: growth inhibition call (relative growth <= 0.2). Particulars: 50 µM.

Some of the results follow.

For the compound `CC(C)NC(=O)N(C)C[C@@H]1Oc2ccc(NS(=O)(=O)c3ccc(F)cc3)cc2CC(=O)N([C@H](C)CO)C[C@@H]1C`, the cytotoxicity call in the assay with HSkMC and with HepG2 was “inactive” each time. Moreover, the growth inhibition call in the assay with S. aureus RN4220 was “inactive”.

Turning to `Cc1ccc(S(=O)(=O)Nc2ccc3c(c2)C(=O)N([C@@H](C)CO)C[C@H](C)[C@@H](CN(C)S(=O)(=O)c2ccccc2)O3)cc1`, the cytotoxicity call in the assay on HSkMC and in the assay with HepG2 was “inactive” throughout. Moreover, in the assay with S. aureus RN4220, the growth inhibition call was “inactive”.

`COc1ccc(NC(=O)N(C)C[C@H]2OCCCC[C@@H](C)Oc3ccc(NC(=O)Nc4c(C)noc4C)cc3C(=O)N([C@@H](C)CO)C[C@H]2C)cc1`: the cytotoxicity call in the assay on HSkMC and with HepG2 was “inactive” throughout. Also, the growth inhibition call with S. aureus RN4220 is “inactive”.

As for `C[C@@H]1CN([C@H](C)CO)C(=O)c2cc(NS(=O)(=O)c3ccc(F)cc3)ccc2O[C@@H]1CN(C)Cc1ccc(Cl)c(Cl)c1`, the cytotoxicity call in the assay on HSkMC and in the assay on HepG2 was “inactive” in each case. In the assay on S. aureus RN4220, the growth inhibition call is “inactive”.

In the case of `Nc1ncnc2nc[nH]c12`, the cytotoxicity call with HSkMC and with HepG2 was “inactive” each time. In the assay with S. aureus RN4220, the growth inhibition call was “inactive”.

On to `C[C@@H]1CN([C@H](C)CO)C(=O)c2cccc(NC(=O)c3ccc(-c4nccs4)cc3)c2O[C@@H]1CN(C)Cc1ccc(Oc2ccccc2)cc1`, for which the cytotoxicity call in the assay on HSkMC and in the assay on HepG2 was “inactive” each time. Further, the growth inhibition call in the assay with S. aureus RN4220 was “inactive”.

Regarding `C[C@H]1CN([C@@H](C)CO)C(=O)Cc2cc(NC(=O)Cc3cn(C)c4ccccc34)ccc2O[C@@H]1CN(C)Cc1ccc(C(F)(F)F)cc1`, the cytotoxicity call in the assay with HSkMC and in the assay with HepG2 was “active” each time. Also, in the assay with S. aureus RN4220, the growth inhibition call was “inactive”.

For `COc1ccccc1-c1ccc2c(c1)O[C@@H](CN(C)C(=O)c1ccncc1)[C@H](C)CN([C@@H](C)CO)S2(=O)=O`, the cytotoxicity call in the assay on HSkMC and in the assay with HepG2 was “inactive” in each case. Moreover, the growth inhibition call in the assay on S. aureus RN4220 is “inactive”.

Turning to `C[C@H]1CN([C@@H](C)CO)C(=O)c2cccc(NS(C)(=O)=O)c2O[C@@H]1CN(C)Cc1ccc2c(c1)OCO2`, the cytotoxicity call with HSkMC and with HepG2 was “inactive” in each case. In addition, the growth inhibition call in the assay with S. aureus RN4220 was “inactive”.

For `C[C@@H]1CCCCO[C@H](CN(C)S(=O)(=O)c2cccs2)[C@H](C)CN([C@H](C)CO)C(=O)c2cc(NC(=O)CCC(F)(F)F)ccc2O1`, the cytotoxicity call in the assay with HSkMC and with HepG2 was “inactive” in each case. Moreover, the growth inhibition call in the assay on S. aureus RN4220 was “inactive”.

For `COCC(=O)N(C)C[C@@H]1Oc2cc(C#Cc3ccccc3)ccc2S(=O)(=O)N([C@H](C)CO)C[C@@H]1C`, the cytotoxicity call with HSkMC and with HepG2 was “inactive” in each case. The growth inhibition call in the assay with S. aureus RN4220 was “inactive”.

On to `COc1ccc(CN(C)C[C@@H]2OCCCC[C@@H](C)Oc3ccc(NS(=O)(=O)c4ccccc4)cc3C(=O)N([C@@H](C)CO)C[C@H]2C)cc1`, for which the cytotoxicity call in the assay with HSkMC and in the assay on HepG2 was “inactive” throughout. Also, in the assay on S. aureus RN4220, the growth inhibition call was “inactive”.

Turning to `COc1cccc(-c2cnc3c(c2)C(=O)N([C@H](C)CO)C[C@H](C)[C@H](CN(C)S(=O)(=O)c2cccc(OC)c2)O3)c1`, the cytotoxicity call with HSkMC and in the assay on HepG2 was “inactive” in each case. For the same compound, the growth inhibition call with S. aureus RN4220 was “inactive”.

For `C[C@H](CO)N1C[C@H](C)[C@@H](CN(C)C(=O)Nc2cccc(F)c2)Oc2ncc(C#CCN(C)C)cc2C1=O`, the cytotoxicity call in the assay on HSkMC and in the assay on HepG2 was “inactive” each time. Moreover, the growth inhibition call in the assay on S. aureus RN4220 was “inactive”.

On to `C[C@H](CO)N1C[C@H](C)[C@H](CN(C)CC2CC2)Oc2c(NS(=O)(=O)c3cccs3)cccc2C1=O`, for which the cytotoxicity call in the assay with HSkMC and in the assay with HepG2 was “inactive” each time. Besides, the growth inhibition call with S. aureus RN4220 is “inactive”.

Turning to `C[C@@H]1CN([C@H](C)CO)C(=O)c2cc(NS(=O)(=O)c3ccccc3)ccc2O[C@@H](C)CCCCO[C@@H]1CN(C)Cc1ccc(C(F)(F)F)cc1`, the cytotoxicity call in the assay on HSkMC and in the assay with HepG2 was “inactive” throughout. For the same compound, the growth inhibition call in the assay on S. aureus RN4220 is “inactive”.

On to `COc1ccc(S(=O)(=O)Nc2cccc3c2O[C@H](CN(C)CC2CC2)[C@H](C)CN([C@H](C)CO)C3=O)cc1`, for which the cytotoxicity call with HSkMC and in the assay on HepG2 was “inactive” throughout. For the same compound, in the assay on S. aureus RN4220, the growth inhibition call was “inactive”.

For `C[C@@H]1CN([C@H](C)CO)C(=O)c2cccc(NC(=O)NC3CCCCC3)c2O[C@H]1CN(C)Cc1ccc(C(F)(F)F)cc1`, the cytotoxicity call with HSkMC and in the assay on HepG2 was “inactive” throughout. Also, the growth inhibition call in the assay on S. aureus RN4220 is “inactive”.

As for `C[C@H](CO)N1C[C@H](C)[C@H](CN(C)S(=O)(=O)c2ccc(F)cc2)Oc2ccc(NS(=O)(=O)c3cccs3)cc2C1=O`, the cytotoxicity call in the assay with HSkMC and in the assay with HepG2 was “inactive” each time. Further, in the assay on S. aureus RN4220, the growth inhibition call was “inactive”.

As for `Cn1c(=O)[nH]c(=O)c2c1ncn2CCNCc1ccco1`, the cytotoxicity call in the assay with HSkMC and in the assay on HepG2 was “inactive” in each case. The growth inhibition call in the assay with S. aureus RN4220 was “inactive”.

`C[C@@H]1CCCCO[C@H](CN(C)Cc2ccc3c(c2)OCO3)[C@H](C)CN([C@@H](C)CO)C(=O)c2cc(NC(=O)Nc3ccc4c(c3)OCO4)ccc2O1`: the cytotoxicity call in the assay with HSkMC and in the assay on HepG2 was “active” each time. The growth inhibition call in the assay with S. aureus RN4220 was “inactive”.

Take `C[C@@H]1CN([C@H](C)CO)C(=O)c2cc(C3=CCCC3)cnc2O[C@@H]1CN(C)S(=O)(=O)c1cn(C)cn1`: the cytotoxicity call in the assay on HSkMC and with HepG2 was “inactive” each time. Besides, the growth inhibition call with S. aureus RN4220 is “inactive”.

Consider `C[C@@H]1CN([C@H](C)CO)C(=O)c2cccc(NC(=O)Nc3ccccc3)c2O[C@@H]1CN(C)S(C)(=O)=O`, for which the cytotoxicity call with HSkMC and in the assay with HepG2 was “inactive” each time. Further, in the assay with S. aureus RN4220, the growth inhibition call is “inactive”.

For `CCCN(C)C[C@@H]1OCCCC[C@@H](C)Oc2ccc(NC(=O)Nc3ccc(F)cc3)cc2C(=O)N([C@H](C)CO)C[C@@H]1C`, the cytotoxicity call in the assay on HSkMC (human skeletal muscle cells) and in the assay with HepG2 was “inactive” each time. Besides, in the assay with S. aureus RN4220, the growth inhibition call is “inactive”.
